# Measurements as given in PubChem BioAssay AID894 (National Center for Advancing Translational Sciences (NCATS), 2007).
# The whole screen tested about 150,000 compounds, of which about 6,500 (4.3%) were called active. Inconclusive results, whose numbers are uncertain, are shown with a selection of clear calls. Calls follow the shape of the dose curve; as a rule, active = well fitted inhibition curve with a large enough effect (not every such curve was filed as active); inconclusive = small, poorly fitted or top-dose-only effect, or another doubt; inactive = no such curve, though single readings can be large or run the other way. No potency is given beside an inconclusive call; the fits are too rough.
# Molecular target: 15-hydroxyprostaglandin dehydrogenase [NAD(+)] (Homo sapiens) (UniProt P15428)
# Chain of UniProt P15428 (P15428 whole entry, looked up): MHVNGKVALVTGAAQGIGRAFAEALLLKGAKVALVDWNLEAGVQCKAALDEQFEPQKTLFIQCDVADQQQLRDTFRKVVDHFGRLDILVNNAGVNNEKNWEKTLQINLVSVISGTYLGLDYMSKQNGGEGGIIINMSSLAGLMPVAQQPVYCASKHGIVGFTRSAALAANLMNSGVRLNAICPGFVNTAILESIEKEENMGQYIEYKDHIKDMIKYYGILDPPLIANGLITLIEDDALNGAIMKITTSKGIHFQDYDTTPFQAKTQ
# Test: qHTS Assay for Inhibitors of HPGD (15-Hydroxyprostaglandin Dehydrogenase)
# Settings: purified HPGD, NADH fluorescence kinetic, PGE2 substrate; activity change, negative = inhibition: hits give low values
# Method in brief: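 20 nM HPGD preincubated 15 min at room temperature with compound in 50 mM Tris-HCl pH 8, 0.01% Tween 20. Started with 1 mM NAD+ and 30 uM prostaglandin E2; NADH fluorescence (360/450 nm) read 5 times over 30-s intervals, last minus first.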
# % is scaled to controls: 0 for no effect and ±100 for the full control effect; potency is read from the fitted curve at half-maximal effect; tags tell the direction and shape of the fitted curve.
SMILES,Potency,"activity change, negative = inhibition"
COc1ccc(/C=C(/NC(=O)c2ccc(OC)c(OC)c2)C(=O)NCCc2c[nH]c3ccccc23)cc1,"inconclusive [inhibitor, partial curve]",
CCCC(=O)c1ccc(N2CCC(C)CC2)c(F)c1,active: 14.1 µM,
COC(=O)c1ccccc1NC(=O)c1cc2nc(C3CC3)cc(C(F)(F)F)n2n1,"inconclusive [inhibitor, partial curve]",
CCC(SC1=NCCS1)C(=O)Nc1nnc(-c2ccccc2OC)s1 (stereo not given),"inconclusive [inhibitor, single point]",
c1ccc(-c2nn3c(C4CCCCC4)nnc3s2)cc1,,inactive: -17.1%
C=CCn1c(=O)/c(=C/c2ccc(Cl)cc2)s/c1=C(/C#N)c1nnc2n1CCCCC2,active: 25.1 µM,
CC(=O)Nc1ccc(/C=C(\C#N)C(=O)NCc2ccccc2)cc1,"inconclusive [inhibitor, partial curve, poor fit]",
CC(C)OC(=O)/C(=C/c1ccc2c(c1)c1ccccc1n2C)NC(=O)c1ccccc1,"inconclusive [inhibitor, single point]",
COC(=O)c1cc(CSc2nnc(NC3CCCCC3)s2)oc1C,,inactive: -25.6%
O=c1c2sc3nc(N4CCOCC4)c4c(c3c2ncn1CCc1ccccc1)CCCC4,"inconclusive [inhibitor, partial curve]",
CCOC(=O)CC(=O)CSc1nc(-c2ccc3c(c2)OCO3)cc(C(F)(F)F)c1C#N,"inconclusive [inhibitor, full curve]",
CCOC(=O)c1[nH]c2cc3c(cc2c1NC(=O)CN1CC(C)CC(C)C1)OCO3 (stereo not given),"inconclusive [inhibitor, partial curve]",
NC(=O)c1cc2ccc(O)cc2oc1=Nc1ccccc1,"inconclusive [inhibitor, partial curve]",
COc1ccc(C2=NOC(C(=O)NCc3ccco3)C2)cc1 (stereo not given),"inconclusive [inhibitor, partial curve]",
O=C(Cc1ccccc1)NCc1ccc2c(c1)OCO2,active: 31.6 µM,
O=C(CN1C2=NCCN2c2ccccc21)c1ccc(Br)cc1,,inactive: -0.717%
Cc1nnc(Cl)c2nn(-c3ccccc3F)c(C)c12,"inconclusive [inhibitor, partial curve]",
COc1ccc(C(C)=O)c(O)c1,active: 17.8 µM,
O=[N+]([O-])/C(C(Cl)=C(Cl)Cl)=C(\Nc1ccc(F)cc1)n1cncn1,active: 28.2 µM,
COc1cc(/C=N/n2cnc3scc(-c4cccs4)c3c2=O)cc(OC)c1OC,"inconclusive [inhibitor, single point]",
